Changes are numbered by the printed parent chain; changes in the protein carry UniProt numbers. This is one part of the list.
B1: UUCGGUC (DNA:RNA)
RNA: GGGAGACCGGAAUUCAGAUUGUCCUUCGGUCUUAAAUCCCGUCGUAGCCACCA
DNA 1: CAATCTGAATTCCGGTCTCCC
DNA 2: TGGTGGCTACGACGGGATT
B2: GACUUGU (DNA:RNA)
RNA: B1 RNA with U25G, U26A, G28U, G29U, U30G, C31U
DNA 1: CAATCTGAATTCCGGTCTCCC
DNA 2: TGGTGGCTACGACGGGATT
B3: ACGUGAA (DNA:RNA)
RNA: B1 RNA with U25A, U26C, C27G, G28U, U30A, C31A
DNA 1: CAATCTGAATTCCGGTCTCCC
DNA 2: TGGTGGCTACGACGGGATT
B4: UAAGCUU (DNA:RNA)
RNA: B1 RNA with U26A, C27A, G29C, C31U
DNA 1: CAATCTGAATTCCGGTCTCCC
DNA 2: TGGTGGCTACGACGGGATT
B5: AAUACCU (DNA:RNA)
RNA: GGGAGACCGGAAUUCAGAUUGUCCAAUACCUUUAAAUCCCGUCGUAGCCACCA
DNA 1: CAATCTGAATTCCGGTCTCCC
DNA 2: TGGTGGCTACGACGGGATT
B6: GCAGGAA (DNA:RNA)
RNA: B1 RNA with U25G, U26C, C27A, U30A, C31A
DNA 1: CAATCTGAATTCCGGTCTCCC
DNA 2: TGGTGGCTACGACGGGATT
B7: GUGGAUG (DNA:RNA)
RNA: B1 RNA with U25G, C27G, G29A, C31G
DNA 1: CAATCTGAATTCCGGTCTCCC
DNA 2: TGGTGGCTACGACGGGATT
B8: AGUAUAU (DNA:RNA)
RNA: B5 RNA with A26G, C29U, C30A
DNA 1: CAATCTGAATTCCGGTCTCCC
DNA 2: TGGTGGCTACGACGGGATT
B9: GUCAACC (DNA:RNA)
RNA: B1 RNA with U25G, G28A, G29A, U30C
DNA 1: CAATCTGAATTCCGGTCTCCC
DNA 2: TGGTGGCTACGACGGGATT
B10: AGGCAAU (DNA:RNA)
RNA: B5 RNA with A26G, U27G, A28C, C29A, C30A
DNA 1: CAATCTGAATTCCGGTCTCCC
DNA 2: TGGTGGCTACGACGGGATT
B11: AUAAACU (DNA:RNA)
RNA: B5 RNA with A26U, U27A, C29A
DNA 1: CAATCTGAATTCCGGTCTCCC
DNA 2: TGGTGGCTACGACGGGATT
B12: GUGCGGU (DNA:RNA)
RNA: B1 RNA with U25G, C27G, G28C, U30G, C31U
DNA 1: CAATCTGAATTCCGGTCTCCC
DNA 2: TGGTGGCTACGACGGGATT
B13: CGUACUG (DNA:RNA)
RNA: B5 RNA with A25C, A26G, C30U, U31G
DNA 1: CAATCTGAATTCCGGTCTCCC
DNA 2: TGGTGGCTACGACGGGATT
B14: AAGGCCA (DNA:RNA)
RNA: B5 RNA with U27G, A28G, U31A
DNA 1: CAATCTGAATTCCGGTCTCCC
DNA 2: TGGTGGCTACGACGGGATT
B15: AUCCCGC (DNA:RNA)
RNA: B1 RNA with U25A, G28C, G29C, U30G
DNA 1: CAATCTGAATTCCGGTCTCCC
DNA 2: TGGTGGCTACGACGGGATT
B16: AUUAACG (DNA:RNA)
RNA: B5 RNA with A26U, C29A, U31G
DNA 1: CAATCTGAATTCCGGTCTCCC
DNA 2: TGGTGGCTACGACGGGATT
B17: AGCUAGA (DNA:RNA)
RNA: B5 RNA with A26G, U27C, A28U, C29A, C30G, U31A
DNA 1: CAATCTGAATTCCGGTCTCCC
DNA 2: TGGTGGCTACGACGGGATT
B18: AGUAAUU (DNA:RNA)
RNA: B5 RNA with A26G, C29A, C30U
DNA 1: CAATCTGAATTCCGGTCTCCC
DNA 2: TGGTGGCTACGACGGGATT
B19: GCGAGAC (DNA:RNA)
RNA: B1 RNA with U25G, U26C, C27G, G28A, U30A
DNA 1: CAATCTGAATTCCGGTCTCCC
DNA 2: TGGTGGCTACGACGGGATT
B20: UCGGGCC (DNA:RNA)
RNA: B1 RNA with U26C, C27G, U30C
DNA 1: CAATCTGAATTCCGGTCTCCC
DNA 2: TGGTGGCTACGACGGGATT
B21: CUACCCA (DNA:RNA)
RNA: B5 RNA with A25C, A26U, U27A, A28C, U31A
DNA 1: CAATCTGAATTCCGGTCTCCC
DNA 2: TGGTGGCTACGACGGGATT
B22: CCGUCCA (DNA:RNA)
RNA: B5 RNA with A25C, A26C, U27G, A28U, U31A
DNA 1: CAATCTGAATTCCGGTCTCCC
DNA 2: TGGTGGCTACGACGGGATT
B23: CGUGCAU (DNA:RNA)
RNA: B5 RNA with A25C, A26G, A28G, C30A
DNA 1: CAATCTGAATTCCGGTCTCCC
DNA 2: TGGTGGCTACGACGGGATT
B24: GUGACAA (DNA:RNA)
RNA: B5 RNA with A25G, A26U, U27G, C30A, U31A
DNA 1: CAATCTGAATTCCGGTCTCCC
DNA 2: TGGTGGCTACGACGGGATT
B25: ACCUCAC (DNA:RNA)
RNA: B5 RNA with A26C, U27C, A28U, C30A, U31C
DNA 1: CAATCTGAATTCCGGTCTCCC
DNA 2: TGGTGGCTACGACGGGATT
B26: GAUCCUC (DNA:RNA)
RNA: B5 RNA with A25G, A28C, C30U, U31C
DNA 1: CAATCTGAATTCCGGTCTCCC
DNA 2: TGGTGGCTACGACGGGATT
B27: AAUUAUG (DNA:RNA)
RNA: B5 RNA with A28U, C29A, C30U, U31G
DNA 1: CAATCTGAATTCCGGTCTCCC
DNA 2: TGGTGGCTACGACGGGATT
B28: CAAGUUC (DNA:RNA)
RNA: B1 RNA with U25C, U26A, C27A, G29U
DNA 1: CAATCTGAATTCCGGTCTCCC
DNA 2: TGGTGGCTACGACGGGATT
B29: GCAAGUC (DNA:RNA)
RNA: B1 RNA with U25G, U26C, C27A, G28A
DNA 1: CAATCTGAATTCCGGTCTCCC
DNA 2: TGGTGGCTACGACGGGATT
B30: AUACACC (DNA:RNA)
RNA: B5 RNA with A26U, U27A, A28C, C29A, U31C
DNA 1: CAATCTGAATTCCGGTCTCCC
DNA 2: TGGTGGCTACGACGGGATT
B31: AGCGAUG (DNA:RNA)
RNA: B1 RNA with U25A, U26G, G29A, C31G
DNA 1: CAATCTGAATTCCGGTCTCCC
DNA 2: TGGTGGCTACGACGGGATT

Molecular target: T1, RBFOX1 RRM (Homo sapiens, UniProt Q9NWB1 109-208)
T1 sequence: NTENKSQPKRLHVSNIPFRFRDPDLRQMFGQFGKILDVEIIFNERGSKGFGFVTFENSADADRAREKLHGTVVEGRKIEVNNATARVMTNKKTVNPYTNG
Assay: EMSA; HiTS-Eq, 1 nM pool, 10 min; buffer printed only for the single-RNA assays: 10 mM Tris pH 7.5, 150 mM NaCl, 3.4 mM EDTA, 0.001% NP-40, 30 C
Conditions: tags: His6 N-terminal (pET28a); label: 5' 32P
How it was run: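 Purified RbFox RRM, wild type or mutant, was incubated for 10 min in 50 µL with 1 nM of a 5′-radiolabelled RNA pool carrying 7 randomized nucleotides, whose flanks were annealed to DNA oligonucleotides, over a series of increasing protein concentrations. Unbound RNA was resolved on 8% native PAGE, cut out, reverse-transcribed, barcoded by PCR and sequenced on an Illumina HiSeq 2500. Relative association constants were derived from changes in read counts for each RNA species versus the control reaction and normalised to the cognate motif.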

Binder | binding signal
B1 | 0.00592 KA relative to UGCAUGU
B2 | 0.0175 KA relative to UGCAUGU
B3 | 0.00505 KA relative to UGCAUGU
B4 | 0.0104 KA relative to UGCAUGU
B5 | 0.00191 KA relative to UGCAUGU
B6 | 0.00999 KA relative to UGCAUGU
B7 | 0.0371 KA relative to UGCAUGU
B8 | 0.00173 KA relative to UGCAUGU
B9 | 0.00506 KA relative to UGCAUGU
B10 | 0.0078 KA relative to UGCAUGU
B11 | 0.000359 KA relative to UGCAUGU
B12 | 0.0184 KA relative to UGCAUGU
B13 | 0.0127 KA relative to UGCAUGU
B14 | 0.00332 KA relative to UGCAUGU
B15 | 0.00173 KA relative to UGCAUGU
B16 | 0.00134 KA relative to UGCAUGU

Binder | binding signal
B17 | 0.0149 KA relative to UGCAUGU
B18 | 0.00647 KA relative to UGCAUGU
B19 | 0.0132 KA relative to UGCAUGU
B20 | 0.011 KA relative to UGCAUGU
B21 | 0.00346 KA relative to UGCAUGU
B22 | 0.00507 KA relative to UGCAUGU
B23 | 0.0166 KA relative to UGCAUGU
B24 | 0.0111 KA relative to UGCAUGU
B25 | 0.00387 KA relative to UGCAUGU
B26 | 0.0113 KA relative to UGCAUGU
B27 | 0.00591 KA relative to UGCAUGU
B28 | 0.00523 KA relative to UGCAUGU
B29 | 0.0118 KA relative to UGCAUGU
B30 | 0.00041 KA relative to UGCAUGU
B31 | 0.0124 KA relative to UGCAUGU
